{"source": "patent US12410153B2", "about": "“Compounds, compositions and methods” (Avalo Therapeutics, Inc., priority 2014, dated 2025)", "target": "GluN1a/GluN2A human receptors (Homo sapiens, UniProt Q12879)", "sequence (Q12879 23-1464)": "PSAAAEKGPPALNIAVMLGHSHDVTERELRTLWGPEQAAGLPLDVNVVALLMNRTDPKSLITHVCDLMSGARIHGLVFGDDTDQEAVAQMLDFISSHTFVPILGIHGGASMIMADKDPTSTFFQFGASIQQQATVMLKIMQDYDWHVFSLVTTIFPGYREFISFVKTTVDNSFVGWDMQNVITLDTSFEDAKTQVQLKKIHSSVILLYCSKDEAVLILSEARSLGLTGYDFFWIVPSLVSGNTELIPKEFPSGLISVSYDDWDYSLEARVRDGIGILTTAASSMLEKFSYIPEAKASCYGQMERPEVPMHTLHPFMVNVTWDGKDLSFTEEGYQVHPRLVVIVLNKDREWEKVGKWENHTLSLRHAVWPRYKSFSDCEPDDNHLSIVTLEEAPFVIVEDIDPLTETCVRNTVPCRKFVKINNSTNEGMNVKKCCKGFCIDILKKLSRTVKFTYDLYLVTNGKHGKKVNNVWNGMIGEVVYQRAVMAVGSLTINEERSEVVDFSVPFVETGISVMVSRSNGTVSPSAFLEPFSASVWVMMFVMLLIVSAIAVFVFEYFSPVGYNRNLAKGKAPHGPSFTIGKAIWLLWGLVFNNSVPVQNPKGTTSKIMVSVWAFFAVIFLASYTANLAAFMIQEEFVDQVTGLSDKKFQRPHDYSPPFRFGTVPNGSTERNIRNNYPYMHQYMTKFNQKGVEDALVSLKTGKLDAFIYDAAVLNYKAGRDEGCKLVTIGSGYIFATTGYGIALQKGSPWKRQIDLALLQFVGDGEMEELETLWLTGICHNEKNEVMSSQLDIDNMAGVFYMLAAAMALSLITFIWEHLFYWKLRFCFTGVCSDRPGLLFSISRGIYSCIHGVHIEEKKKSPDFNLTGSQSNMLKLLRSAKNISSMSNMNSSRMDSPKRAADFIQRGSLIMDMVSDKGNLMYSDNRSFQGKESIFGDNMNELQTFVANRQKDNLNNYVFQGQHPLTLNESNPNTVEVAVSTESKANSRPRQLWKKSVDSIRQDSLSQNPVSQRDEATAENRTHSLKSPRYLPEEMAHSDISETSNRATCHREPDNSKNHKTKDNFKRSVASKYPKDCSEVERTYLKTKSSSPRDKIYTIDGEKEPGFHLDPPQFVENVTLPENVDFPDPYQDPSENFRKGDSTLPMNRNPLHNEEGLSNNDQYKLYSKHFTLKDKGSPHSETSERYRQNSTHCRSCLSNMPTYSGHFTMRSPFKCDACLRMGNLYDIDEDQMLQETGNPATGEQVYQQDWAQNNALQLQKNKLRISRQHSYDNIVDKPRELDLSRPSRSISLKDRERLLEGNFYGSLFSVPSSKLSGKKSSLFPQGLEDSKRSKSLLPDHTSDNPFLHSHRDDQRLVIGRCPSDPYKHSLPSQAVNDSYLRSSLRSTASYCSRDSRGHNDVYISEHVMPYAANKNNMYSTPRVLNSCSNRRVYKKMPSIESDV", "assay": "Calcium influx (FLIPR) in GluN1a/GluN2A L(tk−) cells", "conditions": "agonist-stimulated NR1a/NR2A cells, concentrations up to 30,000 nM"}
{"smiles": "Cc1ccc(COC(=O)N2CC[C@H](CNc3ncccn3)[C@H](F)C2)cc1", "note": "[Form II, 4-methylbenzyl (3S, 4R)-3-fluoro-4-[(pyrimidin-2-ylamino)methyl] piperidine-1-carboxylate]", "values": [{"measurement": "effect on calcium influx", "value": "no effect"}]}
